Data from PubChem BioAssay AID463173 (ICCB-Longwood Screening Facility, Harvard Medical School, 2010).
Hit rate of the full screen: of about 52,000 compounds, about 1,700 (3.3%) were called active. No stated cut-off is given here; in the data, active means survival mostly below about 52% (no sharp cut-off); inactive means mostly above about 56%. This is one part of the list.

The compounds below were run on Wild type (assay: growth inhibition of S. aureus wild type versus tarO mutant, primary screen, teichoic acid synthesis inhibitors, RN4220, OD600 (AID 463173)). Conditions: S. aureus RN4220 wild type/DeltatarO growth, OD600, 18 h, hits give low values, screened at 18.75 µg/mL (by protocol).

SMILES | survival
Cc1ccc(NC(=O)Cn2c(=O)n(CCCCC(=O)NCCc3ccc(Cl)cc3)c(=O)c3ccccc32)cc1 | inactive: 107%
O=C(CSC1=NCCS1)Nc1ccnc2ccccc12 | inactive: 91%
COc1ccc(CNC(=O)CN2C(=O)COc3ccc(S(=O)(=O)N4CCC(C)CC4)cc32)cc1 | inactive: 93%
CCc1c(C)sc2c1CCN(C(=O)Nc1cc(C)cc(C)c1)C2c1ccccc1 (centres undefined) | inactive: 47%
Cc1ccccc1-c1nnc(N(C(=O)C2CC2)C2CCCC2)s1 | inactive: 103%
COCCCNC(=O)CSc1nc2cc3c(cc2c(=O)n1CCCCCC(=O)NCc1ccc2c(c1)OCO2)OCO3 | inactive: 55%
Cc1nc(NC(=O)c2c(-c3ccccc3)c(-c3ccccc3)nn(C)c2=O)sc1C | inactive: 55%
CCCCNC(=O)C1CCC(CNS(=O)(=O)c2ccc(C)cc2)CC1 (centres undefined) | inactive: 77%
CCc1ccc(S(=O)(=O)Nc2ccc3[nH]c(=O)sc3c2)cc1 | inactive: 70%
Cc1cccc(NC(=O)c2sc3nc4c(cc3c2N)CN(C(C)C)CC4)c1 | inactive: 78%
Cc1cccc(N2CCN(C(=O)CN3C(=O)COc4ccc(S(=O)(=O)N5CCOCC5)cc43)CC2)c1C | inactive: 83%
COc1ccc2[nH]cc(NC(=O)NCc3ccncc3)c(=O)c2c1 | inactive: 110%
CC1=C(C(=O)OC2CCCCCC2)C(c2cccc(F)c2F)CC(=O)N1 (centres undefined) | inactive: 123%
CCC1CCCCN1C(=O)CSc1nc(-c2ccc(OC)c(OC)c2)cc(C(F)(F)F)n1 (centres undefined) | active: -15%
O=C1c2ccccc2C(=O)C1(O)N1CCOCC1 | inactive: 105%
Cc1cc([N+](=O)[O-])ccc1NC(c1nnc(-c2ccccc2)o1)c1ccccc1F (centres undefined) | inactive: 99%
Cc1ccc(Cn2c(SCC(=O)NCc3ccccc3Cl)nc3ccsc3c2=O)cc1 | active: -6%
CCOC(=O)c1cc2c(=O)n3ccccc3nc2n(Cc2ccco2)c1=NC(=O)c1cccc(F)c1 | inactive: 43%
Fc1ccc(Nc2nc(SCc3ccccc3F)nc3ccccc23)cc1 | inactive: 47%
COc1cc(NC(=O)CCCc2nnc3n(CC(C)C)c(=O)c4sccc4n23)cc(OC)c1 | inactive: 97%
Cc1nc2cc(C(=O)NC3CCCCCC3)ccc2n1-c1ccc(Br)cc1 | inactive: 65%
CC(C)N(C(=O)CSc1nnc(Cc2csc(Nc3ccccc3)n2)o1)C(C)C | inactive: 114%
CC(=O)N1CCc2cc(Br)cc(S(=O)(=O)CCC(=O)N3CCN(c4ccccc4)CC3)c21 | inactive: 62%

SMILES | survival
CCOc1ccc2nc(N3CCCC(C(=O)Nc4ccc(OC)c(Cl)c4)C3)sc2c1 (centres undefined) | inactive: 89%
Cc1cc(-c2ccc(C)c(S(=O)(=O)NCCc3ccc(S(N)(=O)=O)cc3)c2)on1 | inactive: 69%
CC(C)c1ccc(NS(=O)(=O)c2ccc3[nH]cc(C(=O)NCC4CCCO4)c(=O)c3c2)cc1 (centres undefined) | inactive: 115%
NC(=O)C1CCN(C(=O)CN2CCc3ccccc3C2)CC1 | inactive: 115%
O=C(CSc1nc(-c2ccco2)cc(C(F)(F)F)n1)Nc1ccccc1 | inactive: 105%
CN(C)S(=O)(=O)c1ccc2c(c1)N(CC(=O)Nc1ccc(F)cc1)C(=O)CS2 | inactive: 68%
Cc1ccc2oc(=O)c3cc(C(=O)N(Cc4ccccc4)C(C)C)sc3c2c1 | inactive: 84%
O=C(CSc1oc(-c2ccco2)nc1S(=O)(=O)c1ccc(Cl)cc1)c1ccc(Cl)cc1 | inactive: 102%
Cc1ccc(CN2c3ccccc3S(=O)(=O)c3ccccc32)cc1 | inactive: 82%
COc1ccc(CNC(=O)CC2N=C3c4ccccc4N=C(SCC(=O)Nc4ccc(N(C)C)cc4)N3C2=O)cc1 (centres undefined) | inactive: 84%
COc1ccc(-c2c3c(=O)n(C)c(=O)n(C)c3c3c(-c4ccc(C)cc4)nc4ccccc4n23)cc1 | inactive: 83%
Cc1ccc(NC(=O)Cn2c(-c3ccc4c(c3)OCO4)cn(-c3ccccc3)c2=O)cc1 | inactive: 72%
Cc1ccc2c(c1)c1c(c(=O)n(Cc3ccccc3)c(=O)n1CC(=O)Nc1ccccc1C)n2C | inactive: 125%
Cc1nnc(NC(=O)CCCN2C(=O)/C(=C/c3cccs3)SC2=S)s1 | inactive: 107%
Cc1ccc(Nc2nc(C(=O)NCc3ccco3)cs2)cc1 | inactive: 116%
Cc1ccc(S(=O)(=O)Nc2cc3c(cc2N2CCOCC2)n(C)c(=O)n3C)c(C)c1 | inactive: 79%
CCC(C(=O)Nc1cccc(C#N)c1)n1c(=O)c(-c2ccccc2NC(C)=O)nc2ccccc21 (centres undefined) | inactive: 96%
Cc1ccc(CSc2nc(=O)c3c(n2C)NC(=O)CC3c2ccc(OC(C)C)cc2)cc1 (centres undefined) | inactive: 86%
CCN1CCC(N(Cc2cccc(OC)c2)C(=O)Nc2ccc(C)cc2Cl)CC1 | inactive: 53%
CCCCCNC(=O)C(=O)NCC(c1ccc2c(c1)OCO2)N1CCOCC1 (centres undefined) | inactive: 68%
CCc1nnc(NC(=O)CSCc2cc(=O)c3ccc(C)cc3[nH]2)s1 | inactive: 120%
CCOC(=O)c1cc2c(ccn2-c2ccc(F)cc2)n1CC(=O)N1CCc2ccccc21 | inactive: 116%
Cc1cc(C)nc(SC2CCCCC2=O)n1 (centres undefined) | inactive: 110%

SMILES | survival
COc1cc(NC(=O)c2cnn(-c3cccc(F)c3)c2C2CCNCC2)cc(OC)c1OC | inactive: 74%
COc1cccc(CN(CCO)Cc2ccccc2)c1OC | inactive: 119%
Cc1ccc(S(=O)(=O)CCSc2nc(C)cc(C)c2C#N)cc1 | inactive: 96%
O=C(CN(C1CCCCC1)S(=O)(=O)c1ccccc1)NCc1ccco1 | inactive: 109%
Cc1ccc(C)c(NC(=O)CCCn2nc(C)c3sc4ccccc4c3c2=O)c1 | inactive: 89%
Cc1cc(O)c(C(c2ccccc2Cl)N2CCN(c3ccccc3)CC2)c(=O)n1Cc1ccco1 (centres undefined) | inactive: 77%
O=C(C1=C(O)C(=O)N(CCN2CCOCC2)C1c1ccccc1)c1ccco1 (centres undefined) | inactive: 99%
CCCN(CCC)CCNC(=O)c1cc2c(-c3ccccc3F)nn(C)c2s1 | inactive: 97%
COc1cc(CN(C(=O)COc2ccc(C)c(C)c2)c2ccccn2)cc(OC)c1OC | inactive: 80%
COc1ccc(NC(=O)CN(Cc2ccccc2)S(=O)(=O)c2ccc3nc(C)sc3c2)cc1 | inactive: 77%
CCN(CC)C(=O)CSc1nnc2c(n1)[nH]c1ccc(C(C)C)cc12 | inactive: 113%
CCCCN(CC)CCCNC(=O)c1cc2c(-c3ccc(OC)c(OC)c3)nn(C)c2s1 | inactive: 100%
CCN(CC)CCNC(=O)Cn1ncc2c([nH]c3ccccc32)c1=O | inactive: 72%
Cn1nc(C(=O)N2CCN(c3ccccc3F)CC2)c2c1-c1ccccc1SC2 | inactive: 50%
O=C1c2oc3ccc(F)cc3c(=O)c2C(c2cccc([N+](=O)[O-])c2)N1CCCN1CCOCC1 (centres undefined) | inactive: 79%
Cc1ccc(NC(=O)c2cccn2-c2nnc(N3CCCCC3)s2)cc1Cl | inactive: 88%
CCOc1ccc(-c2cnc(NCc3ccc(OC)cc3OC)n2C)cc1 | inactive: 68%
COCCNC(=O)C1CCCN(S(=O)(=O)c2ccc3c(ccn3C)c2)C1 (centres undefined) | inactive: 47%
O=C(NCc1ccc(F)cc1)c1ccc(NC(=O)N2CC3CCCN3c3ccccc32)cc1 (centres undefined) | inactive: 123%
COc1ccc(Cl)cc1NC(=O)CCC(=O)c1ccc(C)cc1 | inactive: 85%
CC(=O)c1ccc(NC(=O)c2ncn(-c3ccccc3)n2)cc1 | inactive: 65%
Cc1ccc2nc(N(Cc3cccnc3)C(=O)C3COc4ccccc4O3)sc2c1 (centres undefined) | inactive: 71%
Cc1ccc(CSc2cn(CC(=O)N3CCCCC3)c3ccccc23)cc1 | inactive: 90%

SMILES | survival
CCc1ccc(CN(C(=O)c2cc3ccccc3oc2=O)C2CCS(=O)(=O)C2)cc1 (centres undefined) | inactive: 84%
CC(C)(C)NC(=O)COc1ccc(CNc2ccc3c(c2)OCCO3)cc1 | inactive: 98%
CCc1c(C)sc2c1CCN(Cc1ccc(F)cc1)C2c1ccccc1 (centres undefined) | inactive: 71%
CCCCNC(=O)CCCn1c(=O)c2ccccc2n(Cc2ccccc2C)c1=O | inactive: 84%
COc1ccc(CNC(=O)COCc2cc(-c3cccs3)on2)cc1OC | inactive: 80%
CCn1cc(C(=O)NCCc2ccccc2)c(=O)c2cc(S(=O)(=O)N(C)C3CCCCC3)ccc21 | inactive: 89%
CC(=O)Nc1cccc(C(=O)NCc2ccc3c(c2)CCN3C(C)=O)c1 | inactive: 72%
CC(=O)c1[nH]c(C)c(C(=O)NCCc2ccc(C)cc2)c1C | inactive: 88%
COc1ccc(-c2noc(-c3ccc(NCc4ccccc4OC)c([N+](=O)[O-])c3)n2)cc1 | inactive: 83%
Cc1ccc(C2=Nc3ccccc3N(CC(=O)Nc3cccc(F)c3)C(=O)C2)cc1C | inactive: 127%
O=c1oc2c3c(ccc2c2ccccc12)OCN(Cc1cccc(Cl)c1)C3 | inactive: 71%
CN(C)CCCNc1oc(/C=C/c2ccc(F)cc2)nc1C#N | inactive: 89%
Cc1ccc(NC(=O)CCCn2c(=O)c3cccn3c3cccnc32)c(Cl)c1 | inactive: 88%
Cc1cc(C)c(NC(=O)CSc2nccn2Cc2ccco2)c(C)c1 | inactive: 71%
O=C(CN1CCN(Cc2ccc(Cl)cc2)C1=O)NCc1ccc(F)cc1 | inactive: 121%
CCOc1ccccc1N(C)C(=O)C1CCCN(c2ncnc3onc(-c4ccc(F)cc4)c23)C1 (centres undefined) | inactive: 64%
Cc1c(CCNC(=O)Cc2ccccc2)sc2nc(-c3ccc(F)cc3)nn12 | inactive: 71%
O=C(c1ccc2c(c1)OCCO2)N(Cc1cccnc1)c1nc2ccc(F)cc2s1 | inactive: 69%
NC1=NC(=O)CC(C(=O)Nc2ccccc2)S1 (centres undefined) | inactive: 112%
CCOc1ccc(CNC(=O)c2cc3c(=O)n(C)c4ccccc4c3s2)cc1 | inactive: 84%
